Measured values as given in the antibiotic and cytotoxicity screens of Wong et al. (2023).
The other results are listed elsewhere or left out.

Experiments:
HSkMC = human skeletal muscle cells; experiment: cytotoxicity call (relative viability < 0.9); conditions: 10 µM
HepG2 = experiment: cytotoxicity call (relative viability < 0.9); conditions: 10 µM
S. aureus RN4220 = experiment: growth inhibition call (relative growth <= 0.2); conditions: 50 µM

Compound | cytotoxicity call (HSkMC) | cytotoxicity call (HepG2) | growth inhibition call (S. aureus RN4220)
C[C@@H]1CCCCO[C@@H](CN(C)C(=O)CCCN(C)C)[C@@H](C)CN([C@H](C)CO)C(=O)c2cc(NC(=O)Nc3cccc4ccccc34)ccc2O1 | inactive | inactive | inactive
CC(C)(O)C#Cc1ccc([C@H]2[C@H]3CN(S(C)(=O)=O)CCCCN3[C@H]2CO)cc1 | inactive | inactive | inactive
C=CCNC1=NS(=O)(=O)c2ccccc21 | inactive | inactive | inactive
C[C@H](CO)N1C[C@H](C)[C@@H](CN(C)C(=O)Cc2ccncc2)Oc2cc(C#CC3CCCC3)ccc2S1(=O)=O | inactive | inactive | inactive
C[C@@H]1CN([C@@H](C)CO)C(=O)c2cc(NS(=O)(=O)c3ccccc3)ccc2O[C@@H](C)CCCCO[C@@H]1CN(C)C(=O)Nc1ccccc1 | inactive | inactive | inactive
Cc1noc(C)c1S(=O)(=O)Nc1ccc2c(c1)C(=O)N([C@@H](C)CO)C[C@H](C)[C@@H](CN(C)C(=O)Nc1ccc3c(c1)OCO3)O2 | inactive | inactive | inactive
CCCNC(=O)N(C)C[C@@H]1Oc2ncc(-c3ccc(C(=O)N(C)C)cc3)cc2C(=O)N([C@@H](C)CO)C[C@H]1C | inactive | inactive | inactive
Cc1ccc(S[C@]2(C(=O)NCCCN(C)C)CC(=O)N(C3Cc4ccccc4C3)[C@@H]2c2ccc(CO)cc2I)cc1 | inactive | inactive | inactive
Cc1ccc(S(=O)(=O)Nc2ccc3c(c2)CC(=O)N([C@@H](C)CO)C[C@@H](C)[C@H](CN(C)S(=O)(=O)c2ccccc2)O3)cc1 | inactive | inactive | inactive
CN1C(=O)c2cc(NC(=O)Cc3cccs3)ccc2OC[C@@H]2O[C@H](CC(=O)NCCCN3CCOCC3)CC[C@@H]21 | inactive | inactive | inactive
CC(C)NC(=O)N(C)C[C@H]1Oc2ccc(NC(=O)C3CCCCC3)cc2CC(=O)N([C@H](C)CO)C[C@@H]1C | inactive | active | inactive
O=C(NCCCN1CCOCC1)[C@@H]1[C@@H](CO)[C@@H]2Cn3c(cccc3=O)[C@H]1N2C(=O)NC1CCCC1 | inactive | inactive | inactive
C[C@@H]1CN([C@H](C)CO)C(=O)c2cc(C#CC3CCCC3)cnc2O[C@@H]1CN(C)C(=O)Cc1ccccn1 | inactive | inactive | inactive
Cc1cccc(S(=O)(=O)N2C[C@@H](O)COC[C@H]3O[C@H](CC(=O)NCc4ccc5c(c4)OCO5)CC[C@@H]32)c1 | inactive | inactive | inactive
C[C@H]1CN([C@@H](C)CO)C(=O)c2cc(NC(=O)CCC(F)(F)F)ccc2O[C@@H]1CN(C)Cc1ccc(C(F)(F)F)cc1 | inactive | inactive | inactive
CO/N=C(\C(=O)N[C@@H]1C(=O)N2C(C(=O)O)=C(C[N+]3(C)CCCC3)CS[C@H]12)c1csc(N)n1 | inactive | inactive | active
C[C@@H]1CN([C@@H](C)CO)C(=O)c2cc(NS(=O)(=O)c3cn(C)cn3)ccc2O[C@@H](C)CCCCO[C@@H]1CN(C)C(=O)Nc1ccc(C(F)(F)F)cc1 | inactive | inactive | active
C[C@@H]1CN([C@@H](C)CO)C(=O)c2cccc(NC(=O)c3cnccn3)c2O[C@H]1CN(C)Cc1ccncc1 | inactive | inactive | inactive
COc1ccc(NC(=O)N(C)C[C@H]2OCCCC[C@@H](C)Oc3ccc(NC(=O)Nc4cccc5ccccc45)cc3C(=O)N([C@H](C)CO)C[C@@H]2C)cc1 | inactive | inactive | inactive
COc1ccc(CN(C)C[C@@H]2Oc3ccc(NS(=O)(=O)c4c(C)noc4C)cc3C(=O)N([C@@H](C)CO)C[C@H]2C)cc1 | inactive | inactive | inactive
C[C@@H]1CN([C@@H](C)CO)S(=O)(=O)c2ccc(C#Cc3ccccc3F)cc2O[C@H]1CN(C)CC1CCOCC1 | inactive | inactive | inactive
C[C@@H]1CCCCO[C@@H](CN(C)CC2CC2)[C@H](C)CN([C@@H](C)CO)C(=O)c2cc(NC(=O)NC3CCCCC3)ccc2O1 | inactive | inactive | inactive
COCC#Cc1cnc2c(c1)C(=O)N([C@@H](C)CO)C[C@@H](C)[C@@H](CN(C)S(=O)(=O)c1cccc(OC)c1)O2 | inactive | inactive | inactive
CC[C@@H](C)[C@H]1O[C@@]2(CC[C@@H]1C)C[C@H]1C[C@@H](CC=C(C)[C@@H](O[C@H]3C[C@@H](OC)[C@@H](O[C@H]4C[C@@H](OC)[C@@H](O)[C@@H](C)O4)[C@@H](C)O3)[C@@H](C)C=CC=C3CO[C@H]4[C@@H](O)C(C)=C[C@@H](C(=O)O1)[C@]34O)O2.CO[C@H]1C[C@@H](O[C@@H]2[C@@H](OC)C[C@@H](O[C@@H]3C(C)=CC[C@@H]4C[C@@H](C[C@@]5(CC[C@@H](C)[C@H](C(C)C)O5)O4)OC(=O)[C@@H]4C=C(C)[C@H](O)[C@@H]5OCC(=CC=C[C@@H]3C)[C@@]45O)O[C@@H]2C)O[C@@H](C)[C@@H]1O | active | active | inactive
